Data on one molecule can be found in the supplement of paper PMC8728848.

Some of the results follow.

What all share (test): glycan array binding signal (z-score within array); higher = stronger binding
Common to all, as to conditions: glycan notation: IUPAC condensed, linker removed

Assay [1] deals with GlcNAc(b1-3)Gal(b1-4)GlcNAc(b1-3)Gal(b1-4)GlcNAc(b1-2)Man(a1-3)[GlcNAc(b1-3)Gal(b1-4)GlcNAc(b1-3)Gal(b1-4)GlcNAc(b1-2)Man(a1-6)]Man(b1-4)GlcNAc(b1-4)GlcNAc. A digest of the protocol:
(§1)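 From the Consortium for Functional Glycomics database, 3228 arrays were curated, keeping only those whose protein sequence was available. Binding is given as a within-array Z-score averaged across arrays sharing a protein sequence and across linkers. Negative Z-scores can be read as non-binding.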

The target of assay [2] is GlcNAc(b1-3)Gal(b1-4)GlcNAc(b1-3)Gal(b1-4)GlcNAc(b1-2)Man(a1-3)[GlcNAc(b1-3)Gal(b1-4)GlcNAc(b1-3)Gal(b1-4)GlcNAc(b1-2)Man(a1-6)]Man(b1-4)GlcNAc(b1-4)[Fuc(a1-6)]GlcNAc. The gist of the method:
as §1

Assay [3] concerns the target GlcNAc(b1-3)Gal(b1-4)GlcNAc(b1-3)Gal(b1-4)GlcNAc(b1-2)[GlcNAc(b1-3)Gal(b1-4)GlcNAc(b1-3)Gal(b1-4)GlcNAc(b1-6)]Man(a1-6)[GlcNAc(b1-3)Gal(b1-4)GlcNAc(b1-3)Gal(b1-4)GlcNAc(b1-2)Man(a1-3)]Man(b1-4)GlcNAc(b1-4)[Fuc(a1-6)]GlcNAc. A digest of the protocol: as §1
In assay [4] the target is GlcNAc(b1-3)Gal(b1-4)GlcNAc(b1-3)Gal(b1-4)GlcNAc(b1-3)Gal(b1-4)GlcNAc(b1-2)Man(a1-3)[GlcNAc(b1-3)Gal(b1-4)GlcNAc(b1-3)Gal(b1-4)GlcNAc(b1-3)Gal(b1-4)GlcNAc(b1-2)Man(a1-6)]Man(b1-4)GlcNAc(b1-4)GlcNAc. A digest of the protocol: as §1
In assay [5] the target is GlcNAc(b1-3)Gal(b1-4)GlcNAc(b1-3)Gal(b1-4)GlcNAc(b1-3)Gal(b1-4)GlcNAc(b1-2)Man(a1-3)[GlcNAc(b1-3)Gal(b1-4)GlcNAc(b1-3)Gal(b1-4)GlcNAc(b1-3)Gal(b1-4)GlcNAc(b1-2)Man(a1-6)]Man(b1-4)GlcNAc(b1-4)[Fuc(a1-6)]GlcNAc. A digest of the protocol:
as §1

In assay [6] the target is GlcNAc(b1-3)Gal(b1-4)GlcNAc(b1-3)Gal(b1-4)GlcNAc(b1-3)Gal(b1-4)GlcNAc(b1-2)[GlcNAc(b1-3)Gal(b1-4)GlcNAc(b1-3)Gal(b1-4)GlcNAc(b1-3)Gal(b1-4)GlcNAc(b1-6)]Man(a1-6)[GlcNAc(b1-3)Gal(b1-4)GlcNAc(b1-3)Gal(b1-4)GlcNAc(b1-3)Gal(b1-4)GlcNAc(b1-2)Man(a1-3)]Man(b1-4)GlcNAc(b1-4)[Fuc(a1-6)]GlcNAc. The gist of the method:
as §1

In assay [7] the target is GlcNAc(b1-3)Gal(b1-4)GlcNAc(b1-3)Gal(b1-4)GlcNAc(b1-3)Gal(b1-4)GlcNAc(b1-3)Gal(b1-4)GlcNAc(b1-2)Man(a1-3)[GlcNAc(b1-3)Gal(b1-4)GlcNAc(b1-3)Gal(b1-4)GlcNAc(b1-3)Gal(b1-4)GlcNAc(b1-3)Gal(b1-4)GlcNAc(b1-2)Man(a1-6)]Man(b1-4)GlcNAc(b1-4)GlcNAc. The gist of the method: as §1
For assay [8], the target named is GlcNAc(b1-3)Gal(b1-4)GlcNAc(b1-3)Gal(b1-4)GlcNAc(b1-3)Gal(b1-4)GlcNAc(b1-3)Gal(b1-4)GlcNAc(b1-2)Man(a1-3)[GlcNAc(b1-3)Gal(b1-4)GlcNAc(b1-3)Gal(b1-4)GlcNAc(b1-3)Gal(b1-4)GlcNAc(b1-3)Gal(b1-4)GlcNAc(b1-2)Man(a1-6)]Man(b1-4)GlcNAc(b1-4)[Fuc(a1-6)]GlcNAc. The gist of the method: as §1
In assay [9] the target is GlcNAc(b1-3)Gal(b1-4)GlcNAc(b1-3)Gal(b1-4)GlcNAc(b1-3)Gal(b1-4)GlcNAc(b1-3)Gal(b1-4)GlcNAc(b1-2)[GlcNAc(b1-3)Gal(b1-4)GlcNAc(b1-3)Gal(b1-4)GlcNAc(b1-3)Gal(b1-4)GlcNAc(b1-3)Gal(b1-4)GlcNAc(b1-6)]Man(a1-6)[GlcNAc(b1-3)Gal(b1-4)GlcNAc(b1-3)Gal(b1-4)GlcNAc(b1-3)Gal(b1-4)GlcNAc(b1-3)Gal(b1-4)GlcNAc(b1-2)Man(a1-3)]Man(b1-4)GlcNAc(b1-4)[Fuc(a1-6)]GlcNAc. A digest of the protocol:
as §1

Assay [10] has as its target GlcNAc(b1-3)Gal(b1-4)GlcNAc(b1-3)Gal(b1-4)GlcNAc(b1-3)GalNAc. A digest of the protocol:
as §1

For assay [11], the target named is GlcNAc(b1-3)Gal(b1-4)GlcNAc(b1-3)GalNAc. The gist of the method: as §1
Assay [12] addresses GlcNAc(b1-3)Gal(b1-4)GlcNAc(b1-3)[GlcNAc(b1-3)Gal(b1-4)GlcNAc(b1-3)]GalNAc. The gist of the method: as §1
Assay [13] concerns the target GlcNAc(b1-3)Gal(b1-4)GlcNAc(b1-6)[Gal(b1-3)]GalNAc. A digest of the protocol:
as §1

In assay [14] the target is GlcNAc(b1-3)Gal(b1-4)GlcNAc(b1-6)[GlcNAc(b1-3)Gal(b1-3)]GalNAc. The gist of the method: as §1
Assay [15] concerns the target GlcNAc(b1-3)Gal(b1-4)GlcNAc(b1-6)[GlcNAc(b1-3)]Gal(b1-4)GlcNAc. A digest of the protocol: as §1
The target of assay [16] is GlcNAc(b1-3)GalNAc. A digest of the protocol:
as §1

Assay [17] addresses GlcNAc(b1-3)Man. The gist of the method: as §1
Assay [18] concerns the target GlcNAc(b1-3)[GlcNAc(b1-4)][GlcNAc(b1-6)]GlcNAc. The gist of the method:
as §1

For assay [19], the target named is GlcNAc(b1-3)[GlcNAc(b1-6)]Gal(b1-4)GlcNAc. The gist of the method: as §1
In assay [20] the target is GlcNAc(b1-3)[GlcNAc(b1-6)]GalNAc. A digest of the protocol:
as §1

Assay [21] concerns the target GlcNAc(b1-4)Gal(b1-4)GlcNAc. The gist of the method: as §1
The target in assay [22] is GlcNAc(b1-4)GlcNAc. A digest of the protocol: as §1
Assay [23] has as its target GlcNAc(b1-4)GlcNAc(b1-4)GlcNAc. The gist of the method:
as §1

B1: Epa1 (Candida glabrata) (protein)
chain: MGSSHHHHHHSSGLVPRGSHMTSSNDISLASKDPTTFPLGCSPDITTPKKGLSMELYSYDFRKKGSYPCWDAAYLDPNYPRTGYKSHRLLAKVDGVTGNINFYYHATKGCTPQLGHLPASYNYPKPLTMTNFTMLLYGYFRPKVTGFHTFTISADDLLFVNFGAGNAFDCCRRDSSADHFGNYQAYAIWGSKTAKDELTVHLDAGVYYPIRLFYNNREYDGALSFTFKTESNENTVSDFSEYFFSLDDTEEGCPGLISYD
Take B1: the “glycan array binding signal (z-score)” value is -0.256 in [1]; -0.245 in [2]; -0.206 in [3]; -0.298 in assay [4]; -0.268 in [5]; -0.26 in assay [6]. The “glycan array binding signal (z-score)” value in assay [7] is -0.286; in assay [8], -0.177; in assay [9], -0.207; in assay [10], -0.32; in assay [11], -0.289; in assay [12], -0.18. Moreover, the “glycan array binding signal (z-score)” value in [13] is 1.03; in assay [14], -0.264; in assay [15] it was -0.31; in assay [16] it was -0.297; in assay [17], -0.267; in assay [18], -0.326. For the same molecule, the “glycan array binding signal (z-score)” value was -0.269 in assay [19]; -0.296 in assay [20]; -0.332 in [21]; -0.336 in assay [22]; -0.365 in [23].
